# Publication PMC4336329 (PLoS ONE, 2015)
# Out of some 310,000 compounds screened, about 14,000 (4.5%) showed an effect of 50% or more. The effect is printed as a negative number. The list shows a part of the results.
# Molecular target: human ether-à-go-go-related gene (hERG) potassium channel (human, UniProt Q12809)
# Assay: primary screen, population patch clamp on CHO cells stably expressing hERG
# 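Also: peak tail current of the secondary pulse compared with the same well before compound.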
# Chain of human ether-à-go-go-related gene (hERG) potassium channel (Q12809 whole entry, looked up): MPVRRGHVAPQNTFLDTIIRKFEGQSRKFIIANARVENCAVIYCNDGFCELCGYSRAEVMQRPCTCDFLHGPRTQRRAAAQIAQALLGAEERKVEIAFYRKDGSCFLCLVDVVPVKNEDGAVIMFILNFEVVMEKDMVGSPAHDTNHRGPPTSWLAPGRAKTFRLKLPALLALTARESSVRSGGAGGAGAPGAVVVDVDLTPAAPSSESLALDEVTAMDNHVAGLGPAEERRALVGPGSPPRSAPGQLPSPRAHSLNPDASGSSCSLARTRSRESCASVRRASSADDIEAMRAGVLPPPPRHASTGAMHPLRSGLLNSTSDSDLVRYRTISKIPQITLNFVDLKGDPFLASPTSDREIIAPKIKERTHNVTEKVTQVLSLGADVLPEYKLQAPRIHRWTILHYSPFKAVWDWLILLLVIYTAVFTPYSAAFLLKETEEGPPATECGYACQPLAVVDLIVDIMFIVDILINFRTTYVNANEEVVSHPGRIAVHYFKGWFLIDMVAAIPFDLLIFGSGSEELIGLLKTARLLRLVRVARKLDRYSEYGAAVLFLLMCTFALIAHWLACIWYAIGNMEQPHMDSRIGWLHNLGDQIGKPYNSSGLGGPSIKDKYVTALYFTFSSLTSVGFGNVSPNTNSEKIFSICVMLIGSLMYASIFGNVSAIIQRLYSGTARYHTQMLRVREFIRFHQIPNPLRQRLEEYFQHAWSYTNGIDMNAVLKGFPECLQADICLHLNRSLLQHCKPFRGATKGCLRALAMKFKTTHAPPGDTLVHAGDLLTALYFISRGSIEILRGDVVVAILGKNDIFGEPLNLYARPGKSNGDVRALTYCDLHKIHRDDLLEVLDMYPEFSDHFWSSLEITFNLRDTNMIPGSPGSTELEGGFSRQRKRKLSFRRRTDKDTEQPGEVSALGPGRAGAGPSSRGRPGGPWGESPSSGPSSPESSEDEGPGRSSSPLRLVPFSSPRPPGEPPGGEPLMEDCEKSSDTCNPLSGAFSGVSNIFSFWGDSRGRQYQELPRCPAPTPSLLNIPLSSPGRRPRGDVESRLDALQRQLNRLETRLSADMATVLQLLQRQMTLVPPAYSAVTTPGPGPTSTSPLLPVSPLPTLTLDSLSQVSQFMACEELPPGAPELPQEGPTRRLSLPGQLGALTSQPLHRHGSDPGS
row,Compound,"hERG current change (%, negative = inhibition) at 10uM [%]"
1,Cc1nn(C)c(C)c1S(=O)(=O)N1CCC(C(=O)Nc2ccc3c(c2)OCCO3)CC1,5.99
2,CSc1nnc(CCNS(=O)(=O)c2ccc(Br)cc2)n1C,2.41
3,Cc1cc(Cl)ccc1OCC(=O)NCCCn1ccnc1,-29.8
4,CN(C(=O)CC1C(=O)NCCN1Cc1cccc(C(F)(F)F)c1)C1CCOCC1 (stereo not shown),11.8
5,CCOC(=O)CSc1nc(C)nc2c1sc1nc(C)c(C(C)=O)c(-c3ccc(OC)cc3)c12,-4.32
6,O=C(CCN1C(=O)C2CC=C(Cl)CC2C1=O)NCc1ccco1 (stereo not shown),-2.13
7,CCCc1cc(=O)oc2cc(OCC(=O)N3CCOCC3)c(Cl)cc12,13.5
8,O=C(CCN1C(=O)c2ccccc2C1=O)Nc1sc2c(c1C(=O)NCC1CCCO1)CCC2 (stereo not shown),-3.78
9,CC1CCN(C(=O)CN(c2ccc(Oc3ccccc3)cc2)S(C)(=O)=O)CC1,-9.11
10,N=c1oc2ccccc2cc1-c1nc(-c2ccccc2)cs1,-2.14
11,COc1ccc(N2CCN(S(=O)(=O)CCNC(=O)c3ccc4c(c3)OCO4)CC2)cc1,7.9
12,Cn1cc(C(=O)c2ccc(Cl)cc2Cl)cc1C(=O)N/N=C(\N)COc1ccc(Cl)cc1Cl,-7.99
13,CCCCn1c(Oc2ccc(C(=O)OC)cc2)nc2c1c(=O)n(C)c(=O)n2C,-6.96
14,O=C1NC(=O)/C(=C\c2cn(Cc3ccccc3F)c3ccccc23)N1,20.4
15,CCCCn1c(N)c(N(CC(C)C)C(=O)C2CC(=O)N(Cc3ccccc3)C2)c(=O)[nH]c1=O (stereo not shown),9.04
16,CC(=O)NC(=S)Nc1ccc(NC(=O)c2cccs2)cc1,11.1
17,Cn1nc(C(=O)Nc2sc3c(c2C#N)CCCC3)ccc1=O,5.37
18,Cc1ccn(CCNC(=O)C2CCC(=O)N(Cc3ccc(Cl)cc3)C2)n1 (stereo not shown),-3.57
19,O=C(CCc1ccccc1)NNC(=O)c1ccccn1,25.4
20,COc1cccc(-c2nn(C)c3sc(C(=O)NCc4ccc(C)cc4)cc23)c1,5.06
21,CCCOC(=O)c1c(NC(=O)/C=C/c2cnn(C)c2C)sc(C(=O)OCC)c1C,4.07
22,C=CCn1c(C)c(/C=C/c2cc[n+](C)cc2)c2ccccc21.[I-],-22.2
23,O=C(O)c1ccc(COc2ccccc2/C=C2\NC(=O)N(Cc3ccccc3F)C2=O)cc1,6.58
24,CC(C)C(NS(=O)(=O)c1c(Cl)cccc1Cl)C(=O)OCC(=O)c1c[nH]c2ccccc12 (stereo not shown),-3.43
25,Cc1ccc2oc(-c3ccco3)cc(=O)c2c1,16.3
26,N#CC1=C(N)Oc2cc(O)ccc2C1c1cccnc1 (stereo not shown),27.4
27,Cc1noc(C)c1COc1ccccc1C(=O)NCCc1ccc(Cl)cc1,-20.8
28,O=C(Oc1ccc(Cl)cc1)c1ccc(N2CCOCC2)c([N+](=O)[O-])c1,-15.9

row,Compound,"hERG current change (%, negative = inhibition) at 10uM [%]"
1,Cc1coc(C)c1C(=O)CC1(O)C(=O)N(CCc2ccccc2)c2ccccc21 (stereo not shown),3.21
2,CCOCc1c(C(=O)OCC(=O)NCc2ccc(F)cc2)oc2ccccc12,-23.6
3,CCCCCCCCCCCCOC1OC(CO)C(O)C(O)C1NC(C)=O (stereo not shown),-3.8
4,CCN(CC)S(=O)(=O)c1ccc(NCc2ccccc2)nc1,-11.3
5,CCCC(=O)Nc1ccc(Cl)c(-c2nc3ncccc3o2)c1,-13.3
6,Cc1ccc(NC(=O)CCNS(=O)(=O)c2ccc(Br)s2)cc1,13.7
7,CCSc1nc(N)c2c3c(sc2n1)CCC3,9.27
8,c1cc(-c2ccncc2)ccn1,20.9
9,COc1ccccc1CN1CC(C(=O)NCc2cccc(Cl)c2)CCC1=O (stereo not shown),-14.3
10,Cc1ccc(NC(=S)N2CCN(S(=O)(=O)c3c(F)cccc3F)CC2)cc1C,-17.6
11,Cc1c[nH]c2cccc(OCC(CNC(C)(C)C)OC(=O)c3ccccc3)c12.Cl (stereo not shown),1.02
12,CCCCCCCC(=O)NNC(=O)c1c(O)c2ccccc2n(CC)c1=O,15.6
13,COc1ccccc1C/C(N)=N/OC(=O)COc1ccc(C)cc1,-15.3
14,CC(C)Oc1ccc(/C=C(/NC(=O)c2ccccc2)C(=O)NC(Cc2ccccc2)C(=O)O)cc1 (stereo not shown),17.7
15,Cl.O=C(CCN1CCCC1Cc1ccccc1)c1ccc2c(c1)OCCO2 (stereo not shown),-46.4
16,C#Cc1ccc(C(=O)Nc2ccc(N3CCC(C)CC3)c(C(N)=O)c2)cc1,28.8
17,CCCN1C(=O)/C(=C/c2c(NCCCOC(C)C)nc3c(C)cccn3c2=O)SC1=S,-4.12
18,CCN(CC)C(=O)c1ccc(C(=O)c2c(C)cc(C)cc2C)cc1,-18.7
19,CC(=O)Nc1ccc(S(=O)(=O)NCc2ccc(C)cc2)cc1,-5.84
20,CN(C)S(=O)(=O)c1cccc(NC(=O)c2cccc(S(=O)(=O)N3CCCCC3)c2)c1,-27.9
21,COc1ccnc(Oc2ccc(F)cc2)c1C(=O)N/C=N/OCc1ccc(Cl)cc1Cl,23
22,O=C(NCc1ccc2c(c1)OCO2)C1CC(c2cccc(Br)c2)=NO1 (stereo not shown),-17
23,O=c1c2ccccc2nc(SCc2ccc([N+](=O)[O-])cc2)n1CCCO,-57.9
24,CCO/C=N/c1c(C#N)c2c(c(=S)n1C)COC(C)(C)C2,10.5
25,CCOc1ccc(Nc2oc(-c3cccc(Cl)c3)nc2C#N)cc1,20.7
26,COc1ccc(-c2nc3ccccc3c(=O)n2CC(C)C)cc1,23.7
27,CO/N=C/c1ccc(Sc2ccc(C)cc2)c([N+](=O)[O-])c1,4.74
